# Test results reported in PMC4336329 (PLoS ONE, 2015).
# In all, about 310,000 compounds went through this assay and about 14,000 (4.5%) showed an effect of 50% or more. Effects have a minus sign here. The list shows a part of the results.
# Target: human ether-à-go-go-related gene (hERG) potassium channel (human, UniProt Q12809)
# Experiment: primary screen, population patch clamp on CHO cells stably expressing hERG
# 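Also: peak tail current of the secondary pulse compared with the same well before compound.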
# human ether-à-go-go-related gene (hERG) potassium channel, sequence (Q12809 whole entry, looked up): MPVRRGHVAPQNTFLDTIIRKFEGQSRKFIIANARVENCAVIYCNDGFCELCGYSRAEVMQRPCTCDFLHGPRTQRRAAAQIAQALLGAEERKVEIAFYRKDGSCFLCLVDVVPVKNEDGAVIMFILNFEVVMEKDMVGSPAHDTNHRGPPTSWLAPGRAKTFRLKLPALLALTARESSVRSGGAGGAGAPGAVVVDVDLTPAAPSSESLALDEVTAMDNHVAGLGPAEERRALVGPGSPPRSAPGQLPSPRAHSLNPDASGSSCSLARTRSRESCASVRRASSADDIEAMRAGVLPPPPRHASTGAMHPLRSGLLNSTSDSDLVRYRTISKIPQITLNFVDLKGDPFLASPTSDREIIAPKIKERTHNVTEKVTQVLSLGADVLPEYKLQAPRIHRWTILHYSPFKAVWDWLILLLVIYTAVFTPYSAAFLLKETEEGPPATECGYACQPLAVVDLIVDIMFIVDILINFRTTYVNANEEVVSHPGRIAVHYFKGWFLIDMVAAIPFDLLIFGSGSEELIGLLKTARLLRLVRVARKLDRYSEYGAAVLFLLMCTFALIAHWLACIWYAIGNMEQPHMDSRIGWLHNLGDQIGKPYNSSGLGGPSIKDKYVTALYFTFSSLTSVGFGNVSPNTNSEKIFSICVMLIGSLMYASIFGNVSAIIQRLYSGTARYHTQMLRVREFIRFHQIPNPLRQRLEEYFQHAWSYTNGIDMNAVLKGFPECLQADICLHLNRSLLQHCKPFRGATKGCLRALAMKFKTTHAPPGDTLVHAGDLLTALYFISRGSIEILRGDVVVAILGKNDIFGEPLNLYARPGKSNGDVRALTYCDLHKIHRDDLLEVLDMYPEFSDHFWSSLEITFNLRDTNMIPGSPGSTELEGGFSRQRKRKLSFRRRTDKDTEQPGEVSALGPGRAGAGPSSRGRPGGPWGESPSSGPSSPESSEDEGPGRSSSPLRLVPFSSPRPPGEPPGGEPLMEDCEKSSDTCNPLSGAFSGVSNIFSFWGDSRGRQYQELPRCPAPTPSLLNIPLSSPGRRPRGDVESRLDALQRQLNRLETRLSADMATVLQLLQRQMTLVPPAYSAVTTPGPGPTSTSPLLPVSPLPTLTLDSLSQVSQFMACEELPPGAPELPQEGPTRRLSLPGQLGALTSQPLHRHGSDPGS
row,SMILES,"hERG current change (%, negative = inhibition) at 10uM"
1,CCOCCCNc1c(CC)c(C)c(C#N)c2nc3ccccc3n12,-42.3%
2,CCOC(=O)c1c(NC(=O)CSc2nnnn2-c2ccccc2)sc2c1CCC(C)C2 (stereo not shown),-5.66%
3,CN1c2ccccc2-c2nc3ccccc3n2C1c1ccncc1 (stereo not shown),-13.1%
4,CCc1nnc(NC(=O)CCNC(=O)c2ccccc2Cl)s1,13.2%
5,CCOc1cc(CNn2cnnc2)cc(Br)c1OCC(=O)NC(C)(C)C,12%
6,Cc1ccc(NC(=O)Cn2nc(C(=O)O)c3ccccc3c2=O)c([N+](=O)[O-])c1,8.22%
7,Cc1ccc2nc(-c3cccnc3SCC(=O)N3c4ccccc4CC3C)[nH]c2c1 (stereo not shown),2.71%
8,CCCC1(C)Nc2ccccc2-c2nc3ccccc3n21 (stereo not shown),3.68%
9,Cc1ccc(-n2nnnc2SCC(=O)c2c(N)n(CC(C)C)c(=O)n(C)c2=O)cc1,-69.1%
10,Cc1ccc(-c2cc(C(=O)O)c3cc(Br)ccc3n2)s1,16.7%
11,O=C(c1ccc2c(c1)OCO2)C1CCCN(Cc2cn[nH]c2-c2ccccc2)C1 (stereo not shown),-72.2%
12,O=C1CN(C(=O)COC(=O)c2cccc(OCc3ccccc3)c2)c2ccccc2N1,-0.134%
13,O=S(=O)(c1cnc(Cl)c(Br)c1)N1CCN(c2ncccn2)CC1,30%
14,COc1ccccc1OCCn1cc(/C=N/n2cnnc2)c2ccccc21,-15.4%
15,CCCCN(CC)C(=O)Cn1nc(Cc2ccncc2)c2ccccc2c1=O,-10.6%
16,O=[N+]([O-])c1ccc(N2CCC(=NOCc3ccc(Cl)cc3)CC2)cc1,-54.5%
17,CSc1nccc(-c2sc(SC)c(C#N)c2-c2ccccc2)n1,16.7%
18,CC1CCC(NC(=O)CCNC(=O)c2ccccc2)CC1 (stereo not shown),4.03%
19,CCc1nnc(NC(=O)CCNC(=O)c2ccco2)s1,18.3%
20,COC(=O)COc1cc(OCC(=O)OC)c2c(-c3ccccc3)cc(=O)oc2c1,-3.73%
21,CCCN(CCC)C(=O)Cn1c(=O)n(CCCCC(=O)NCc2ccco2)c(=O)c2ccccc21,-5.31%
22,Cc1nn(CC(=O)NCCC2=CCCCC2)c(C)c1[N+](=O)[O-],17%

row,SMILES,"hERG current change (%, negative = inhibition) at 10uM"
1,O=C(Cc1ccc(F)cc1)N1CCOCC1,15.7%
2,N#Cc1c(-c2ccccc2)ccn(Cc2cccc(Cl)c2)c1=O,8.43%
3,CNC(=S)N(CCc1c(C)[nH]c2ccc(OC)cc12)Cc1ccco1,2.5%
4,CC1(OC(=O)CCc2ccccc2)C(=O)C=C2C=C(c3ccc(C#N)cc3)N(CCc3ccccn3)C=C2C1=O (stereo not shown),-51.8%
5,Cc1ccc(C=NCc2ccncc2)c(O)c1,2.62%
6,CC(C)[C@H](NS(=O)(=O)c1cccc(Cl)c1)C(=O)OCC(=O)NC(=O)CN1CCCC1=O,-3.05%
7,Cc1ccc(-n2nnnc2CNC(=O)C2CC(=O)N(c3ccccc3)C2)cc1C (stereo not shown),-1.96%
8,CC1CCCCN1Cc1ccc(Cl)nc1 (stereo not shown),9.09%
9,CC(/C=N/NC(=O)c1cc(C(C)C)[nH]n1)=C\c1ccccc1,-6.84%
10,COc1ccc(C(C#N)N2N=C(c3ccccc3)CC2c2ccccc2)cc1OC (stereo not shown),11.5%
11,Cc1onc(-c2ccccc2Cl)c1C(N)=O,11.5%
12,CN(Cc1ccccc1)C(=O)c1ccco1,-4.28%
13,Cn1ccs/c1=N\C(=O)Nc1ccccc1,-0.0899%
14,CC(=O)c1ccc(NC2OC(CO)C(O)C(O)C2O)cc1 (stereo not shown),-0.244%
15,CC(C)(C)C(=O)OC/C(N)=N/OC(=O)c1ccc(Cl)c(Cl)c1,-12.6%
16,Cc1ccc(C2Nc3ccccc3-c3nc4ccccc4n32)o1 (stereo not shown),-11.7%
17,Cc1ncc2c(n1)-c1cc(F)ccc1SC2,8.14%
18,COc1ccc(C)cc1NC(=O)CSc1nc2ccccc2nc1N1CCCCC1,23.8%
19,Cc1cccc(N(CC(=O)NC2CCCC2)C(=O)CCC(=O)Nc2ccccn2)c1,15.4%
20,CCC(C)(C)n1nnnc1C(c1ccc(Cl)cc1)N1CCN(C)CC1.Cl (stereo not shown),2.83%
21,O=C1ON=C(c2ccccc2)/C1=C/c1ccc(-c2ccccc2[N+](=O)[O-])o1,4.57%
22,COC(C/C=C\[C@H](O)[C@@H](C)OCc1ccccc1)OC,0.194%

row,SMILES,"hERG current change (%, negative = inhibition) at 10uM"
1,CCC1(c2ccc(N)cc2)CCC(=O)NC1=O (stereo not shown),16.3%
2,Cl.O=S(=O)(NCC(c1ccco1)N1CCCCC1)c1ccccc1C(F)(F)F (stereo not shown),-6.8%
3,Cc1c(C(=O)N2CC(C)OC(C)C2)oc2ccccc12 (stereo not shown),-4.81%
4,COc1ccc(NC(=O)C2CCCN(S(=O)(=O)c3cnc[nH]3)C2)cc1 (stereo not shown),-1.19%
5,CCOc1ccc(CN2CCN(S(=O)(=O)c3ccc(NC(C)=O)cc3)CC2)cc1.O=C(O)C(=O)O,-50.4%
6,Cc1cccn2c(=O)c3cc(C#N)c(=NC(=O)c4ccncc4)n(CCCOC(C)C)c3nc12,-85.1%
7,CCCc1cc(=O)oc2c3c(cc(OCC(=O)N4CCC[C@H]4C(=O)O)c12)OC(C)(C)CC3,8.03%
8,Cc1cc(C)c2oc(C(=O)Nc3ccc(S(=O)(=O)N4CCC(C)CC4)cc3)cc(=O)c2c1,0.0534%
9,COC(=O)Cc1csc(Nc2c(C)n(C)n(-c3ccccc3)c2=O)n1,10.3%
10,COc1ccc(-n2c(C)n[nH]c2=O)cc1OC,10.7%
11,O=C(/C=C/c1ccc(Cl)cc1)NC(=S)Nc1ccc(CN2CCOCC2)cc1,20.2%
12,COC(=O)[C@H](CCSC)NC(=O)N1CCN(c2cccc(C(F)(F)F)c2)CC1,-1.06%
13,CN(C)CCCN(C(=O)c1ccc(Br)s1)c1nc2cc3c(cc2s1)OCCO3.Cl,-33.9%
14,CC(=O)N(C)c1ccc(N=C2C(=O)Nc3ccccc32)cc1,6.68%
15,Cc1cc(C)n(CC(=O)NNC(=O)c2cccc(C(F)(F)F)c2)n1,12.7%
16,CCCCN(S(=O)(=O)c1ccccc1)S(=O)(=O)c1ccccc1,11.7%
17,CC(C)(C)c1nnc(N/N=C/c2cc(Br)ccc2O)n(N)c1=O,-18.4%
18,COc1ccc(CC(=O)NCC2CCCN(Cc3cccc(C(F)(F)F)c3)C2)cc1 (stereo not shown),-28%
19,O=C(N/N=C/c1ccc([N+](=O)[O-])s1)c1ccncc1,16.8%
20,Cc1ccc(S(=O)(=O)N(CC(O)CN2CCCCC2)c2cccc([N+](=O)[O-])c2)cc1 (stereo not shown),-78.8%
21,CCOC(=O)c1[nH]c(C(=O)O)c(OC(=O)CC)c1C,17.4%
22,CCOC(=O)c1sc(NC(=O)CSc2nnnn2-c2ccccc2)c(C(=O)OCC)c1C,4.34%

row,SMILES,"hERG current change (%, negative = inhibition) at 10uM"
1,CN(CC(=O)Nc1ccc(F)c(F)c1F)C(=O)Cn1cnc2c1c(=O)n(C)c(=O)n2C,-2.29%
2,Cc1cccc(NC(=O)/C(=C\c2ccco2)NC(=O)c2cccs2)c1,-11.8%
3,CC12CCC(C(=O)NNC(=O)c3ccc(F)cc3)(OC1=O)C2(C)C (stereo not shown),24.6%
4,Cc1ccc(NC(=O)CN2C(=O)N/C(=C/c3ccc(C)o3)C2=O)cc1,11.9%
5,COc1cc(-c2nn3c(-c4cccnc4)nnc3s2)cc(OC)c1OC,-1.97%
6,COc1ccc2cc(C(=O)C3CCCN(C(=O)c4cc5nc(C)cc(C)n5n4)C3)ccc2c1 (stereo not shown),-12.6%
7,Cc1ccc(NC(=O)COc2ncnc3cc([N+](=O)[O-])ccc23)cc1S(=O)(=O)N1CCOCC1,-30.5%
8,CCN(CC)S(=O)(=O)c1cccc(C(=O)OC2CCOC2=O)c1 (stereo not shown),2.12%
9,O=C(Nc1ccc(F)cc1F)c1ccc(-n2cccn2)nc1,19.5%
10,Nc1cc(Cl)nc(N/N=C/c2c(O)ccc3ccccc23)n1,9.93%
11,CC1=C(C(=O)N2CCOCC2)C(c2cccs2)NC(=O)N1 (stereo not shown),8.43%
12,CN1CCN(c2ccc(C(=O)c3ccc(F)cc3)cc2)CC1,-34.9%
13,Cc1ccc(NS(=O)(=O)c2ccc3oc(=O)ccc3c2)cc1Cl,3.79%
14,CCN(CC)C(=O)CN(c1cc(Cl)ccc1OC)S(C)(=O)=O,5.63%
15,CCc1nnc(NC(=O)NC(C)(C)C)s1,9.22%
16,COc1ccccc1-n1c(SCC(=O)Nc2cccc3ccccc23)nc(O)cc1=O,5.56%
17,Cc1ccc(N2C(=O)C3C(C(=O)c4ccccc4)=NN(c4ccccc4)C3C2=O)cc1 (stereo not shown),-5.36%
18,CCOP(=O)(OCC)/C(C#N)=C/c1ccc([N+](=O)[O-])cc1,-33.1%
19,O=C(CSc1n[nH]c(-c2ccccc2)n1)NC(=O)NCc1ccco1,-14%
20,C=CCn1c(-c2ccc(S(=O)(=O)N3CCOCC3)cc2)csc1=Nc1ccccc1,0.308%
21,CNC(=O)CN1C(=O)CSc2nc(C)cc(C)c21,2.26%
22,CCOC(=O)c1c(NC(=O)c2nn(CC)cc2Br)c(C#N)cn1-c1ccccc1,-5.82%
